For some of these results: The hits were mostly taken out for another list; the other results follow. Inconclusive results are not listed. Only a part is listed here, and it is no random draw. Active and inactive are the calls of the source. Calls come from the whole dose curve; as a rule, active = well fitted curve in the direction sought with a large enough effect; inconclusive = small, poorly fitted or top-dose-only effect, or another doubt; inactive = no such curve, though single readings can be large; an effect the other way counts as inactive or inconclusive.
Legend:
[1] = molecular target: Cytochrome P450 3A7 (Homo sapiens) (UniProt P24462); test: Cytochrome P450 family 3 subfamily A member 7 (CYP3A7) small molecule antagonists: luciferase biochemical qHTS assay (AID 1963596); note: nearly all actives have a fitted effect of over 40% in size; note: potency is the fitted concentration of half-maximal effect
Chain of UniProt P24462 (P24462 whole entry, looked up): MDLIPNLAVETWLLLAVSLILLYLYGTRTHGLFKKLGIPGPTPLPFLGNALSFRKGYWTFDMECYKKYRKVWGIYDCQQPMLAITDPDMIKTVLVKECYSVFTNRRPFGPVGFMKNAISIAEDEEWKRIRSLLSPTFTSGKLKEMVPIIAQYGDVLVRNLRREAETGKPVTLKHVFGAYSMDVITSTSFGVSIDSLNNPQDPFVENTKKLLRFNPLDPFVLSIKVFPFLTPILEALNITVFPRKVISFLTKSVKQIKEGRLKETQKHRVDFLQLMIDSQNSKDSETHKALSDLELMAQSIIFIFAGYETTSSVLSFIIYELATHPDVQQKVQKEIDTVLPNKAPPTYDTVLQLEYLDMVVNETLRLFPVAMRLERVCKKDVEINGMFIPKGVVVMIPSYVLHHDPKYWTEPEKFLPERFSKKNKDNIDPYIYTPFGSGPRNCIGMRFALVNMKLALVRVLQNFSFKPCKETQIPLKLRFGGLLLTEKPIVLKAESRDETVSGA
Description: National Center for Advancing Translational Sciences [NCATS] Assay Overview: Cytochrome P450 (CYP) enzymes are membrane-bound hemeproteins that play a key role in metabolism of drugs and xenobiotics. The CYP3A subfamily is the most abundant, representing 30% of the total adult hepatic CYP content, whereas CYP3A7 is found predominantly in human fetal liver and accounts up to 50% of the total fetal hepatic CYP content. Testing the effect of chemicals on CYP isozymes is useful to minimize the adverse drug reactions and toxicities in the drug development process. Chemicals were tested for their effect on CYP enzyme activities by using P450-Glo (TM) screening systems (Promega Corporation, Madison, WI). […] The luciferin products formed are detected with a luciferin detection reagent, and the amount of light produced is proportional to CYP activity. […]
Assay Protocol Summary: Two ul of enzyme-substrate mix was dispensed into medium binding white/solid 1536-well plates (Greiner Bio-One North America Inc., Monroe, NC) using a Flying Reagent Dispenser (FRD, Aurora Discovery, San Diego, CA). […] The reaction was stopped by adding 4 ul of detection reagent using an FRD and after 20 min incubation at room temperature the luminescence signal was measured using a ViewLux plate reader (Perkin Elmer, Shelton, CT). Data were expressed as relative luminescence units.

[2] = Quantitative highthroughput screen to assess conditional lethalithy of P12 Ichikawa cells grown in Human Plasma-Like Medium with dialyzed fetal bovine serum (HPLM+ds) (AID 1963879); conditions: ATP luminescence, 48 h; at 45.8 µM (top of the series); note: nearly all actives have a fitted effect of over 35% in size
Description: Assay Provider: Jason Cantor Ph.D.
Department of Biochemistry
University of Wisconsin-Madison, Madison, WI, USA
Chemical screening studies have identified drug sensitivities across hundreds of cancer cell lines but most putative therapeutics fail to translate. Discovery and development of drug candidates in models that more accurately reflect nutrient levels in human blood is a major challenge. Here we performed high-throughput screens in conventional versus Human Plasma-Like Medium (HPLM) to identify compounds that were "missed" when screening using the artificial culture condition. Sets of conditional anticancer compounds spanned phases of clinical development and included non-oncology drugs were assessed. […] We also traced conditional phenotypes for several chemotherapeutics to availability of HPLM-specific metabolites and confirmed others for compounds whose reported targets are encoded by nonessential genes. Our findings establish generalizable strategies for exploiting conditional lethality in HPLM to reveal therapeutic candidates and mechanisms of action in cancer cells. […]
6; Detection; Luminescence, Viewlux PerkinElmer. […]
6. The luminescence signal was measured using a ViewLux (PerkinElmer) multiplate reader with a 2 second exposure time per plate. […]

[3] = Quantitative highthroughput screen to assess conditional lethalithy of P12 Ichikawa cells grown in RPMI1640 with untreated serum (RPMI+s) (AID 1963881); conditions: ATP luminescence, 48 h; at 45.8 µM (top of the series);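 note: 100% = DMSO wells and 0% = empty wells without cells; nearly all actives have a fitted effect of over 35% in size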
Method in brief: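 Each medium arm—HPLM with 10% dialyzed FBS, or RPMI1640 with 5 mM glucose and 10% untreated or dialyzed FBS—was screened against an 11-point, 3-fold compound titration for 48 h at 37 °C, with CellTiter-Glo luminescence as endpoint.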

Row | SMILES | Potency [1] | viability [2] | viability [3]
1 | CCNC(=O)CC1N=C(c2ccc(Cl)cc2)c2cc(OC)ccc2-n2c(C)nnc21 (centres undefined) | active: 23.9 µM and inactive | inactive: 89.8% | inactive: 84.5%
2 | C[C@@H]1CN(Cc2ccc(F)cc2)CCN1C(=O)COc1ccc(Cl)cc1NC(N)=O | active: 7.08 µM | – | –
